# Data published in PubChem BioAssay AID1768 (National Center for Advancing Translational Sciences (NCATS), 2009).
# Values joined by “and” are separate entries in the source; they are usually repeats but may differ in a detail not shown here. Equal entries are not always repeated. In all, about 270,000 compounds went through this assay and about 620 (0.23%) were called active. Inconclusive means that the source gave no clear call. Such entries were picked first, then a sample of the others. Calls follow the shape of the dose curve; as a rule, active = well fitted inhibition curve with a large enough effect in the polarisation, with a control signal flat (not every such curve was filed as active); inconclusive = small, poorly fitted or top-dose-only effect, or effect the other way, or a change in a side signal; inactive = no such curve, though single readings can be large or run the other way; the % refers to the polarisation. Where the call is inconclusive, the potency comes from a doubtful curve fit. “Side channel” marks fits to a control or component signal instead of the main read-out.
# Target: Menin (Homo sapiens) (UniProt O00255)
# Assay: qHTS Assay for Inhibitors Targeting the Menin-MLL Interaction in MLL Related Leukemias: Competition With Texas Red Labeled MLL-derived Mutant Peptide; as to FP activity change, negative = inhibition: % of control where 0% means no effect
# Details: fluorescence polarization; series mostly up to 61.6 µM; FP activity change, negative = inhibition: at the top concentration
# Potency is read from the fitted curve at half-maximal effect; tags tell the direction and shape of the fitted curve or compound fluorescence and quenching.
# Chain of UniProt O00255 (O00255 whole entry, looked up): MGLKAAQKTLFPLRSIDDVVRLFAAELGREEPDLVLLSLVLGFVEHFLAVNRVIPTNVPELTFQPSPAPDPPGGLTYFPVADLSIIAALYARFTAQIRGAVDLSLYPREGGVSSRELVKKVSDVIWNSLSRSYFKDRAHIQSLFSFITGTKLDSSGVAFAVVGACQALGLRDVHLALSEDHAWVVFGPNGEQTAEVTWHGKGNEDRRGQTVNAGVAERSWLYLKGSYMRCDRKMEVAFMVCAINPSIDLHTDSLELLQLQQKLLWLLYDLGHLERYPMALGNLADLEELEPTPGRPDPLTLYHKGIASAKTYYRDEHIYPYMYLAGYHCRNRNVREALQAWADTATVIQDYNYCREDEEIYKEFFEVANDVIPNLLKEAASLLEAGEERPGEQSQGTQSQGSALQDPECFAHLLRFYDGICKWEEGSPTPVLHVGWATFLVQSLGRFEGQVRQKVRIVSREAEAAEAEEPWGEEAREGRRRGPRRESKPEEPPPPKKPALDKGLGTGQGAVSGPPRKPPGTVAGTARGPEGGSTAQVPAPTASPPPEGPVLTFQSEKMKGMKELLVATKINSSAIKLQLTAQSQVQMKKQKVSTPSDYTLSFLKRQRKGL
SMILES,Potency,"FP activity change, negative = inhibition"
CCc1ccc(N2C(=O)NC(=O)/C(=C/c3cccn3CCOc3ccc(C(C)CC)cc3)C2=O)cc1 (stereo unspecified),"inconclusive: 20 µM [quencher, side channel, single point]",
O=P(O)(O)C(Cl)(Cl)P(=O)(O)O,,inactive: -2.12%
O=C(CCN1CCCCC1)Nc1ccc(Cl)cc1C(=O)c1ccccc1,"inconclusive: 25.1 µM [inhibitor, partial curve]",
O=Cc1c(C(=O)O)n(Cc2ccccc2Cl)c2ccccc12,"inconclusive: 11.2 µM [quencher, side channel, single point]",
COc1ccc(N2C(=O)NC(=O)/C(=C/c3ccc4c(c3)Cc3ccccc3-4)C2=O)cc1,"inconclusive: 31.6 µM [quencher, side channel, single point]",
CCOC(=O)CSc1ccc2ccccc2n1,"inconclusive: 4.47 µM [fluorescent, side channel, full curve, poor fit]",
Cc1cnc(NC(=O)CN2CCCCC2)s1,,inactive: 1.49%
CCOC(=O)C1(CCc2ccccc2)CCN(Cc2cccc3c2OCO3)CC1,"inconclusive: 3.16 µM [fluorescent, side channel, full curve]",
COc1ccc2c(c1)NP(=S)(Oc1ccccc1)N2 (stereo unspecified),"inconclusive: 28.2 µM [quencher, side channel, single point]",
Fc1ccc(CNC2CN3CCC2CC3)cc1 (stereo unspecified),"inconclusive: 0.562 µM [inhibitor, full curve, poor fit]",
O=C1NC(=O)[C@]2(Cc3ccccc3N3CCN(c4ccccc4)CC32)C(=O)N1Cc1ccccc1 (stereo partly specified),"inconclusive: 39.8 µM [quencher, side channel, single point]",
CC(=O)OC1(c2ccc(C)cc2)CN2CCC1c1ccccc12 (stereo unspecified),"inconclusive: 10 µM [fluorescent, side channel, partial curve, poor fit]",
O=C(Nc1cc(C(F)(F)F)ccc1O)Nc1cc(C(F)(F)F)ccc1O,"inconclusive: 8.91 µM [quencher, side channel, partial curve]",
Cc1nc2cc(C(F)(F)F)ccc2n1C1CCN(Cc2nnnn2Cc2cccs2)CC1,,inactive: 1.78%
C/C(O)=C(\C#N)C(=O)Nc1cc(Br)ccc1Br,"inconclusive: 11.2 µM [quencher, side channel, partial curve] and inconclusive: 14.1 µM [quencher, side channel, partial curve]",
CC(C)COC(=O)OCN1C(=O)CN(CCN2CC(=O)N(COC(=O)OCC(C)C)C(=O)C2)CC1=O,"inconclusive: 28.2 µM [fluorescent, side channel, single point]",
